Assay results taken from article PMC2792886 (Journal of molecular biology, 2009).

B1: BirA R116A (enzyme)
chain: not shown
B2: BirA K122A (enzyme)
chain: not shown
B3: BirA R212A (enzyme)
chain: not shown
B4: BirA R213A (enzyme)
chain: not shown

Target: the molecule itself
Assay: AUC

Row | Protein | Kd [µM]
1 | B1 | 5
2 | B2 | 21
3 | B3 | 15
4 | B4 | 7
